According to PubChem BioAssay AID463173 (ICCB-Longwood Screening Facility, Harvard Medical School, 2010):
In all, about 52,000 compounds went through this assay and about 4,300 (8.3%) were called active. Cut-off read from the data, not from the text of the source: active = survival mostly below about 52% (no sharp cut-off); inactive = mostly above about 56%. This is one part of the list.

These compounds were tested on DeltatarO mutant (assay: S. aureus survival, RN4220 and DeltatarO strains – OD600, teichoic acid synthesis inhibitors, primary screen (AID 463173)). Conditions: S. aureus RN4220 wild type/DeltatarO growth, OD600, 18 h, active compounds read low, screened at 18.75 µg/mL (by protocol).

| SMILES | survival |
| --- | --- |
| CCCCc1ccc(-n2nc3cc(C)c(NC(=O)c4ccc(C#N)cc4F)cc3n2)cc1 | inactive: 88% |
| Cc1ccc(NCc2cccn2-c2nnc(N3CCC(C(=O)NCCc4ccc(Cl)cc4)CC3)s2)cc1 | inactive: 59% |
| CCc1ccc(C(=O)c2cn(CC(=O)Nc3ccc4c(c3)OCCO4)c3ccc(F)cc3c2=O)cc1 | inactive: 78% |
| COc1ccc(-n2c(C)nc3c(cnn3-c3ccc(F)cc3)c2=O)cc1 | inactive: 73% |
| CCCCN(CC)CCCNC(=O)c1c(C)oc2ncnc(N3CCOCC3)c12 | inactive: 55% |
| COc1c(O)cccc1-c1nnn(CCC(=O)OCC(=O)c2ccccc2)n1 | inactive: 66% |
| CCc1nn2c(=O)cc(COC(=O)c3cccc(NC(=O)CCc4ccccc4)c3)nc2s1 | inactive: 84% |
| CCOC(=O)c1cnc2cc(-c3ccc(OCC)cc3)nn2c1-c1ccccc1 | inactive: 68% |
| CC(CN(C)C)OC(=O)c1ccc2c(c1)OCO2 (stereo not given) | inactive: 111% |
| COCCc1nn2c(=O)cc(COC(=O)C(c3ccccc3)c3ccccc3)nc2s1 | inactive: 130% |
| Cc1cc(NC(=O)n2ncc3c(C)cccc32)ccc1Br | inactive: 85% |
| CCc1ccc(NC(=O)CC2C(=O)N(c3cccc(C)c3)C(=O)N2Cc2ccc(F)cc2)cc1 (stereo not given) | inactive: 89% |
| C=CC(=O)NC(C)(C)Cc1ccccc1 | inactive: 104% |
| CCC1(CC)Cc2ccccc2-c2nc(NCCCO)[nH]c(=O)c21 | inactive: 82% |
| CCCc1cc(=O)[nH]c(Nc2cc(C)ccc2OC)n1 | inactive: 73% |
| CC(Sc1nnc2ccc3ccccc3n12)C(=O)Nc1ccc(Cl)cc1 (stereo not given) | inactive: 76% |
| COc1cccc(CCNC(=O)c2c(O)nc3c(C)cccn3c2=O)c1 | inactive: 108% |
| O=C(NCCCN1CCOCC1)c1cc2ccccc2oc1=O | inactive: 94% |
| Cc1nc2ccn(Cc3ccccc3)c(=O)c2cc1C(=O)N1CCN(c2ccc(F)cc2)CC1 | inactive: 95% |
| COc1ccccc1NC(=O)Cn1c(SCC(=O)Nc2ccc(F)cc2)nc2ccccc21 | inactive: 94% |
| CCc1ccc(NC(=O)CC2C(=O)N(c3cccc(OC)c3)C(=O)N2Cc2ccc(F)cc2)cc1 (stereo not given) | inactive: 94% |
| Cc1cc2ccc(C)c(C)c2nc1SCC#N | inactive: 94% |
| Cc1ccc(-n2c3c(cc(C(=O)Nc4ccccc4C(N)=O)c2=O)C(=O)CC(C)(C)C3)cc1 | inactive: 49% |

| SMILES | survival |
| --- | --- |
| OCC(O)CNC(=S)NC1CCCCC1 (stereo not given) | inactive: 93% |
| COc1ccc(C2=Nc3ccccc3NC(c3cccs3)=N2)cc1 | inactive: 55% |
| CN(C)CCNC(=O)CN1C(=O)COc2ccc(S(=O)(=O)N3CCCC3)cc21 | inactive: 85% |
| Cc1cc(C)c(NC(=O)CSc2ccc(-c3ccccn3)nn2)c(C)c1 | inactive: 106% |
| CCOc1ccccc1NC(=O)c1c(NC(=O)COc2ccccc2)sc2c1CCCC2 | inactive: 66% |
| O=C1CC(c2ccccc2)Sc2ccccc2N1Cc1ccc(F)cc1 (stereo not given) | active: -2% |
| Cc1cccc(N2CCN(C(c3cc4cc5c(cc4[nH]c3=O)OCO5)c3nnnn3CC3CCCO3)CC2)c1C (stereo not given) | inactive: 79% |
| COc1ccc(NC(=O)CSc2nccn2Cc2ccc3c(c2)OCO3)cc1 | inactive: 58% |
| COc1ccc(C)cc1NC(=O)C(=O)NCC(c1cccnc1)N1CCc2ccccc21 (stereo not given) | inactive: 56% |
| CC(C)CNS(=O)(=O)c1ccc(S(=O)(=O)N2CCCC(C(=O)NC3CCCCC3)C2)cc1 (stereo not given) | inactive: 75% |
| Cc1ccc(CNC(=O)CSc2nc3ccsc3c(=O)n2Cc2ccccc2F)cc1 | inactive: 128% |
| Cc1ccc(-n2cc(-c3ccccc3)c3c(N4CCCCC4)ncnc32)cc1 | inactive: 78% |
| COc1ccccc1CNC(=O)c1c[nH]c2ccc(S(=O)(=O)Nc3cc(C)cc(C)c3)cc2c1=O | inactive: 89% |
| CCCOc1ccc(CNC(=O)CCCn2ncn3c(cc4sc(CC)cc43)c2=O)cc1 | inactive: 85% |
| Cc1ccc(-c2cc(C(=O)Nc3ccc(SC(F)F)cc3)no2)cc1F | inactive: 47% |
| COc1cccc(NC(=O)CCC(=O)N2Cc3ccccc3Oc3ncccc32)c1 | inactive: 92% |
| CCNS(=O)(=O)c1ccc(NC(=O)CSc2nc(-c3ccco3)cc(C(F)(F)F)n2)cc1 | active: 36% |
| CCCOc1ccc(NC(=O)CC2C(=O)N(c3ccccc3)C(=O)N2Cc2ccco2)cc1 (stereo not given) | inactive: 124% |
| Cc1ccc(NC(=O)C(Cc2ccccc2)NS(=O)(=O)c2ccc3c(c2)c(=O)n(C)c(=O)n3C)c(C)c1 (stereo not given) | inactive: 76% |
| Cc1ccc(S(=O)(=O)N2CCN(C(=O)c3cc(-c4ccc(Br)cc4)n[nH]3)CC2)c(C)c1 | inactive: 79% |
| CCN(CC)c1ccc(NC(=O)c2cccn2-c2nnc(N3CCCCC3)s2)c(C)c1 | inactive: 83% |
| COC(=O)C1(CCSC)NC(c2ccc(N(C)C)cc2)C2C(=O)N(C)C(=O)C21 (stereo not given) | inactive: 92% |
| O=C(CSc1ncccn1)NCCC1=CCCCC1 | inactive: 104% |

| SMILES | survival |
| --- | --- |
| Cc1cc(N2CCCCC2)nc2ccc(NC(=O)CCC(=O)N3CCN(c4ccccc4)CC3)cc12 | inactive: 62% |
| O=C(CSCc1ccc(F)cc1)N1CCc2c([nH]c3ccccc23)C1c1ccc(Cl)cc1 (stereo not given) | inactive: 82% |
| COc1ccc(NC(=O)CN2C(=O)c3cccnc3Sc3ccccc32)cc1OC | inactive: 91% |
| CC(=O)NC(Cc1ccccc1)C(=O)NC1CCN(c2nnnn2-c2ccccc2)CC1 (stereo not given) | inactive: 105% |
| CC1=C(C(=O)Nc2cc(Cl)ccc2C)C(c2cccs2)n2ncnc2N1 (stereo not given) | inactive: 118% |
| Cc1cccc(N2CCN(C(=O)c3ccc(Nc4nc5ccccc5n5nnnc45)cc3)CC2)c1C | inactive: 96% |
| CCOC(=O)c1ccc(NC(=O)C2=C(C)Nc3nc(CCCO)nn3C2c2ccc(OC)cc2)cc1 (stereo not given) | inactive: 73% |
| Cc1cccc(NC(=O)C(=O)NCCc2csc(-c3ccc(F)cc3)n2)c1C | inactive: 83% |
| CCN(C(=O)c1cn(CC)c(=O)c2cc(OC)c(OC)cc12)c1ccccc1F | inactive: 174% |
| CCc1ccccc1NC(=O)c1noc2c1CC(C(C)(C)C)CC2 (stereo not given) | active: -6% |
| COc1ccc(CCC(=O)NC2CC(=O)N(c3ccc(OC)cc3)C2)cc1 (stereo not given) | inactive: 87% |
| Cc1cc(C)c2c(=O)cc(CSc3n[nH]c(C)n3)[nH]c2c1 | inactive: 71% |
| O=c1[nH]cc(N2CCOCC2)c(=O)[nH]1 | inactive: 78% |
| N#CCCNc1nncs1 | inactive: 73% |
| CCOc1ccc(N(CC)C(=O)c2cc3c(s2)-c2ccccc2OC3)cc1 | inactive: 76% |
| CC1CCN(c2nc3ccc(C(=O)N4CCN(c5ccccc5)CC4)cc3s2)CC1 | inactive: 72% |
| CCC(=O)N1CCc2cc(CNC(=O)c3ccc(F)cc3)ccc21 | inactive: 73% |
| Cc1ccc(-c2nc3sccn3c2Nc2ccc(C)c(C)c2)cc1 | active: 36% |
| CCOc1ccccc1-n1nnnc1SCC(=O)c1cc(Cl)ccc1OC | inactive: 97% |
| COc1cc(C2C(=O)N(C3CCCCC3)CC(=O)N2C2CCCCC2)ccc1OC(C)C (stereo not given) | inactive: 62% |
| COc1ccc(CCNC(=O)C(C)n2c(=O)cc(-c3ccccc3)c3c(C)nn(C)c32)cc1OC (stereo not given) | inactive: 94% |
| CCSc1nc(-c2ccccc2F)nc2c1Cc1c(CO)cnc(C)c1O2 | active: 52% |
| COC(=O)c1cc2occc2n1CC(=O)Nc1ccc(N(C)C)cc1 | inactive: 85% |

| SMILES | survival |
| --- | --- |
| Cc1ccc(CNC(=O)Cn2c(=O)n(-c3ccc(C)cc3)c(=O)c3c2c2cc(C)ccc2n3C)cc1 | inactive: 129% |
| COC(=O)c1c(N)n(-c2ccc(OC)c(OC)c2)c2nc3ccccc3nc12 | inactive: 94% |
| N#Cc1nc(-c2ccc(COc3ccccc3)o2)oc1N1CCCCC1 | inactive: 48% |
| Cc1ccccc1NC(=O)Cn1c(=O)n(Cc2ccccc2)c(=O)c2c(C)c(C)sc21 | inactive: 136% |
| CCCCCC1CC(CC(C)C(=O)Nc2nncs2)C(=O)O1 (stereo not given) | inactive: 106% |
| Cc1nn2c(=O)cc(COC(=O)c3ccccc3NC(=O)COc3ccccc3C)nc2s1 | inactive: 78% |
| O=C(NCc1ccccc1F)c1ccc(CSc2nc3cccnc3n2Cc2ccccc2)cc1 | inactive: 75% |
| Cc1ccc(SCc2nc(-c3ccc(C(=O)NCCc4ccc(Cl)cc4)cc3)oc2C)cc1 | active: -2% |
| COc1ccc(OC)c(NC(=O)[C@H](CSCc2ccccc2)N2Cc3ccccc3C2=O)c1 | inactive: 98% |
| CCc1ccc(NC(=O)CS(=O)CC(=O)Nc2ccc(F)cc2F)cc1 (stereo not given) | inactive: 91% |
| COc1ccc(OC)c(CNc2nc3ccc(C)cc3n3nnnc23)c1 | inactive: 88% |
| COC(=O)c1cc2sc(Cl)cc2n1CC(=O)Nc1cc(C)cc(C)c1 | inactive: 65% |
| COc1ccc(C)cc1NC(=O)c1cc(S(=O)(=O)N2CCCCC2)c[nH]1 | inactive: 72% |
| Cc1cc(C)cc(NC(=O)CCCc2nc(-c3ccco3)no2)c1 | inactive: 88% |
| COc1ccc2c(CNCCc3cccs3)c(C(=O)O)n(Cc3ccc(F)cc3Cl)c2c1 | inactive: 118% |
| Cn1c(=O)cc(SCC(=O)N2CCN(c3ccccc3F)CC2)c2ccccc21 | inactive: 77% |
| CCC(Sc1nnc2c3ccccc3n(CC)c2n1)C(=O)Nc1nnc(C(C)C)s1 (stereo not given) | inactive: 87% |
| COc1ccc(-c2cc3nc(C4CCN(C(=O)OC(C)(C)C)CC4)c(C(=O)Nc4cc(C)cc(C)c4)cn3n2)cc1 | inactive: 69% |
| CCCN1CCN(CCCNC(=O)c2ccc3nc(Cc4ccccc4)oc3c2)CC1 | inactive: 64% |
| CCOc1ccc(NC(=O)CC2C(=O)N(c3cccc(C)c3)C(=O)N2Cc2cccs2)cc1 (stereo not given) | inactive: 89% |
| N#CCCn1cc(CO)c(-c2ccccc2)n1 | inactive: 95% |
